In publication PMC7819943, “Rice protein-binding microarrays: a tool to detect cis-acting elements near promoter regions in rice”:
Some of the results follow.

Each sequence was assayed against T1, OsWOX13 (Oryza sativa, UniProt Q5QMM3 1-267) (assay: protein-binding microarray (RPBM); PBS, 2% BSA, 51.3 ng/ul salmon testes DNA, 50 uM zinc acetate, 200 nM TF, 25 C, 1 h; high values mean tight binding). Settings: protein: recombinant; tags: N-terminal polyhistidine and DsRed monomer fusion (pET32a); label: CyDye5-dUTP incorporated in the synthesized complementary strand; 3' TTTTT single-stranded linker to array surface; dsDNA, one strand shown.
T1 sequence: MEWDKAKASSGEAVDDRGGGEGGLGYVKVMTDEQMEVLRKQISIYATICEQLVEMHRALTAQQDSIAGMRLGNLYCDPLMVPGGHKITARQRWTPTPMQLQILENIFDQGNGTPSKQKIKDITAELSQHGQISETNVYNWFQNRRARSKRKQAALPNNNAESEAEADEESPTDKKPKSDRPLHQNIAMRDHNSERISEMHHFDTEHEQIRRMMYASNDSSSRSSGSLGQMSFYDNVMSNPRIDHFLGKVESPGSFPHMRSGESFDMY
In short: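 Transcription factors were each fused at the N-terminus to a polyhistidine tag plus DsRed and expressed in E. coli BL21-CodonPlus before Ni–NTA purification. Binding to a double-stranded custom Agilent array was carried out with 200 nM protein at 25 °C for 1 h in PBS, 2% BSA, salmon testes DNA and 50 µM zinc acetate. The binding signal is per-feature fluorescence intensity, in arbitrary units, on an Axon 4000B scanner.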

| Sequence | binding signal |
| --- | --- |
| TCTTTCTTGATTTCCCAATCTACTAAGCTCCTACTAGCTCCGGAGTCACCTAGTGCAG | 11000 fluorescence intensity (a.u.) |
| TCATGTCATAAATTAAATTATTTGAAATTATTTGGTACAGCGGAGTCACCTAGTGCAG | 13900 fluorescence intensity (a.u.) |
| TTGTAAACTGATACAGTCCAGTATCCCCGTGGGTGGTGGACGGAGTCACCTAGTGCAG | 3170 fluorescence intensity (a.u.) |
| GTAGATCAATTTCCTTAACCGAATATAGCAAGAATCCGACCGGAGTCACCTAGTGCAG | 3270 fluorescence intensity (a.u.) |
| AATTCTAATTTATATGGTAGATTTTAAAAGTTAAATTGGACGGAGTCACCTAGTGCAG | 20700 fluorescence intensity (a.u.) |
| GGTAACCTTAATCAATTTGCTGTCAAAGGAAGAAAAGTAACGGAGTCACCTAGTGCAG | 7500 fluorescence intensity (a.u.) |
| CTTAAATGATGAAGAAGATTAATTTTATAGATAGGTGCTTCGGAGTCACCTAGTGCAG | 23100 fluorescence intensity (a.u.) |
| TAATACTTAATTAATCACGTGTTAATGAACCGTTCCGTTTCGGAGTCACCTAGTGCAG | 27700 fluorescence intensity (a.u.) |
| GTAGTTCTTGATGTATTTCAATTAGAACCTTAATTTTCCACGGAGTCACCTAGTGCAG | 3390 fluorescence intensity (a.u.) |
| CAAACTATTTATGCGATGAGTGATTTGATCATACCGTTGACGGAGTCACCTAGTGCAG | 3690 fluorescence intensity (a.u.) |
| TCTTAAATTTTACAAAATTATAATGGCATAGTTCCAATTTCGGAGTCACCTAGTGCAG | 13300 fluorescence intensity (a.u.) |
| TGTATGTGAATTGATTGTACCCATTGGGTTTTGTTTTCTACGGAGTCACCTAGTGCAG | 14200 fluorescence intensity (a.u.) |
| TCAAATTTAACGGACGAGAATCATCCACCGCTTCAGATCCCGGAGTCACCTAGTGCAG | 5020 fluorescence intensity (a.u.) |
| ATTAACTGACTTTTGGTAGAGGCGGTCCAAATTAATGGCTCGGAGTCACCTAGTGCAG | 14100 fluorescence intensity (a.u.) |
| CTTCTACAGTGATTGGTCAATCAGCACAGTAACTAGTAGTCGGAGTCACCTAGTGCAG | 34400 fluorescence intensity (a.u.) |
| CGGATTGATCGACGGCGAAGAATGAAGCTCACCAGAATTTCGGAGTCACCTAGTGCAG | 5290 fluorescence intensity (a.u.) |
| CGTAATTAAGGCTCTTATCCCCTCAGCATTCATCTTTGACCGGAGTCACCTAGTGCAG | 12900 fluorescence intensity (a.u.) |
| CTCAATCAATATTCCACTAATTAAACCCTCCATTGATGATCGGAGTCACCTAGTGCAG | 17200 fluorescence intensity (a.u.) |
| GTTTGGAGGTGTTTGATTGGAGAATGCCAGAATGTAAATTCGGAGTCACCTAGTGCAG | 8100 fluorescence intensity (a.u.) |
| AACAAGTTTTATCAATCTATCTGGAAGAAAGGAGTATATACGGAGTCACCTAGTGCAG | 4420 fluorescence intensity (a.u.) |
| ATATATATAAATTTTAAATCTGTTGTAACGTACTCCAAGTCGGAGTCACCTAGTGCAG | 3280 fluorescence intensity (a.u.) |
| CTAGTAATTTACTTATTAGTACCTGTGTAGTATTATCTATCGGAGTCACCTAGTGCAG | 6560 fluorescence intensity (a.u.) |
| ATGGACGATGACTGATGATGACTCTCAAGAGAATGTGTTTCGGAGTCACCTAGTGCAG | 8460 fluorescence intensity (a.u.) |
| ACTTAATTCTCGTAACATTATTTATATAAACATAATAAATCGGAGTCACCTAGTGCAG | 4120 fluorescence intensity (a.u.) |
| TTCTGATGGAAACTGGCATTTGTGTTATAACAGGAGCTGGCGGAGTCACCTAGTGCAG | 25700 fluorescence intensity (a.u.) |
| GTTAATTTGAGTGTGCTTGATTTCCTTCGGCCATTGTTCTCGGAGTCACCTAGTGCAG | 28000 fluorescence intensity (a.u.) |
| TCTCGCAATAATTAGGGAGAATGATCGGGCAGGGCTTAATCGGAGTCACCTAGTGCAG | 6900 fluorescence intensity (a.u.) |

| Sequence | binding signal |
| --- | --- |
| TCGTAAAATTAATTGTAAATTGTAATATGATAACAAGGCCCGGAGTCACCTAGTGCAG | 33100 fluorescence intensity (a.u.) |
| TGCATCTCTGATTTGTAGTGAATGGGTCAAATGCTTTTGACGGAGTCACCTAGTGCAG | 9930 fluorescence intensity (a.u.) |
| TATTTATGATTTGTAGGTAGATAAGATTATGATTTGTCGACGGAGTCACCTAGTGCAG | 9810 fluorescence intensity (a.u.) |
| CTCTTGATTGCGGCGCGACTGCGAGCGAGAGAGCTTCACGCGGAGTCACCTAGTGCAG | 20500 fluorescence intensity (a.u.) |
| GCTTAATTGGTTAGTGGACTAGTATATAGTAGTACTGTATCGGAGTCACCTAGTGCAG | 46500 fluorescence intensity (a.u.) |
| ACTAATTTGGTATTATAACTGTTGCTAATTATTCTATAAACGGAGTCACCTAGTGCAG | 21700 fluorescence intensity (a.u.) |
| TCAATTTGTAGGGCATGATTAGATCCTAATTTTCTAAAGTCGGAGTCACCTAGTGCAG | 7260 fluorescence intensity (a.u.) |
| ATGATTGGCCTCATCTTCTGCCACCGTTGGTCGACCCCGTCGGAGTCACCTAGTGCAG | 38500 fluorescence intensity (a.u.) |
| ATTTCAATCTAGCTGACATCATCACTTCATCTTATTTGACCGGAGTCACCTAGTGCAG | 11300 fluorescence intensity (a.u.) |
| ATTATGCACATAAATATGCTAATTAGAAAAGTGACACCATCGGAGTCACCTAGTGCAG | 5290 fluorescence intensity (a.u.) |
| CACTAACTGCAGCTGTTGGCGATCGAATTAAGGATCCTGCCGGAGTCACCTAGTGCAG | 3410 fluorescence intensity (a.u.) |
| GTAATTGAAGGACAATACTACCGACTAGGGTGCGTTTTAACGGAGTCACCTAGTGCAG | 7100 fluorescence intensity (a.u.) |
| TCGATTAGAGAGAGATAATTAAGAAACAGGGATTACGGACCGGAGTCACCTAGTGCAG | 3530 fluorescence intensity (a.u.) |
| AAGTTTCAAAATTTAAATTTTGACCGCATGCAGCTGATAACGGAGTCACCTAGTGCAG | 4610 fluorescence intensity (a.u.) |
| GCTGTAATTAGAGAAGAGGATTTAAAGAGAGAGAAGGCCACGGAGTCACCTAGTGCAG | 12800 fluorescence intensity (a.u.) |
| GTAATTTTGGTATGATTTAATAACTAAATTTGGTACCTCACGGAGTCACCTAGTGCAG | 10400 fluorescence intensity (a.u.) |
| CTGTTACAATTGATTGGCAAACCAAGTATTACGAATCGAGCGGAGTCACCTAGTGCAG | 48200 fluorescence intensity (a.u.) |
| TAAGATTGGCTTCGCAGAAATACCATCACTTAAATCGGCTCGGAGTCACCTAGTGCAG | 16300 fluorescence intensity (a.u.) |
| ATTTACATCTGATGACAATCAACTCTCTTACACATGGTATCGGAGTCACCTAGTGCAG | 7320 fluorescence intensity (a.u.) |
| TGCAATTAGCGATCCCACCTAATCTGCGGTTACAGCGATACGGAGTCACCTAGTGCAG | 3440 fluorescence intensity (a.u.) |
| GGACCTGTAAATTGCACATTTGTACATCCAACTGAGCACACGGAGTCACCTAGTGCAG | 3480 fluorescence intensity (a.u.) |
| GTCCAATCCCTTACCGTTGATTGGCCACGTGGCTAAAACTCGGAGTCACCTAGTGCAG | 16000 fluorescence intensity (a.u.) |
| CTTACCGTGCAAATTGAATTTTGTTACTGTTTGGTACTTCCGGAGTCACCTAGTGCAG | 5060 fluorescence intensity (a.u.) |
| ATCATCATAATTTATTTAAAATTGAATTCCGTTGAGCGAGCGGAGTCACCTAGTGCAG | 21200 fluorescence intensity (a.u.) |
| CCTAATTAACAATGCAGCAAAAGAAAGTTTCTGAGAAAGTCGGAGTCACCTAGTGCAG | 22400 fluorescence intensity (a.u.) |
| CTCGTTAGATTTTGATCAATGATTAGTCCAAATTATACATCGGAGTCACCTAGTGCAG | 15200 fluorescence intensity (a.u.) |
| GTATATTGTATAATAATTGATAACTTACCGATATATTATACGGAGTCACCTAGTGCAG | 23400 fluorescence intensity (a.u.) |
